According to the supplement of paper PMC4604168 (melanoma cell lines):
This is one part of the list. Repeats are few or missing, and single values can be far off.

Columns and labels:
Test in all cases: cell count relative to DMSO control; melanoma cells; higher = more viable cells
Conditions in all cases: library dose: low library concentration; 72 h; first compound 0.4 µM
COLO792 = test system: COLO792
COLO800 = test system: COLO800
COLO829 = test system: COLO829
G361 = test system: G361
IPC-298 = test system: IPC-298
IST-MEL1 = test system: IST-MEL1
LB2518-MEL = test system: LB2518-MEL
LOXIMVI = test system: LOXIMVI
MEL-HO = test system: MEL-HO
MZ2-MEL = test system: MZ2-MEL
MeWo = test system: MeWo
RPMI7951 = test system: RPMI7951
RVH-421 = test system: RVH-421
SkMel28 = test system: SkMel28
SkMel2 = test system: SkMel2
SkMel30 = test system: SkMel30
SkMel5 = test system: SkMel5
UACC257 = test system: UACC257
UACC62 = test system: UACC62
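Further: cell number obtained by counting DAPI-stained nuclei in high-throughput microscope images with image analysis software, screen run in 1,536-well plates.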

Structure (SMILES) | cell count (COLO792) | cell count (COLO800) | cell count (COLO829) | cell count (G361) | cell count (IPC-298) | cell count (IST-MEL1) | cell count (LB2518-MEL) | cell count (LOXIMVI) | cell count (MEL-HO) | cell count (MZ2-MEL) | cell count (MeWo) | cell count (RPMI7951) | cell count (RVH-421) | cell count (SkMel28) | cell count (SkMel2) | cell count (SkMel30) | cell count (SkMel5) | cell count (UACC257) | cell count (UACC62)
C[C@@H](N)c1ccc(C(=O)Nc2ccnc3[nH]ccc23)cc1 + CN(NC(=O)CC(=O)NN(C)C(=S)c1ccccc1)C(=S)c1ccccc1 [STA4783] (partner dose 0.006 µM) | 62.5% | 66.3% | 64.7% | 70.9% | 110% | 80.4% | 69.3% | 260% | 69.2% | 87.2% | 37.2% | 80.8% | 76.6% | 53.6% | 88.6% | 94.9% | 88.5% | 56.4% | 67.9%
C[C@@H](N)c1ccc(C(=O)Nc2ccnc3[nH]ccc23)cc1 + CC(C)(C)c1cnc(CSc2cnc(NC(=O)C3CCNCC3)s2)o1 [SNS-032] (partner dose 0.01 µM) | 82.1% | 89.7% | 103% | 90.2% | 103% | 95.9% | 85% | 88% | 88.7% | 71.8% | 86.4% | 65.6% | 75.9% | 78.2% | 101% | 94.8% | 69.8% | 80.3% | 73%
C[C@@H](N)c1ccc(C(=O)Nc2ccnc3[nH]ccc23)cc1 + O=C(CCCCCCC(=O)Nc1ccccc1)NO [vorinostat] (partner dose 0.08 µM) | 83.7% | 114% | 104% | 102% | 101% | 94% | 100% | 78.5% | 71.9% | 80.1% | 67.5% | 78.6% | 74.4% | 49.5% | 95.5% | 147% | 59.5% | 57.5% | 63.9%
CCCCCCCCCCCCCCCCCCOP(=O)([O-])OC1CC[N+](C)(C)CC1 [Perifosine] + CCN(CC)CCCCNc1ncc2cc(-c3cc(OC)cc(OC)c3)c(NC(=O)NC(C)(C)C)nc2n1 [PD173074] (partner dose 0.1 µM) | 105% | 114% | 91.9% | 114% | 107% | 101% | 100% | 104% | 105% | 108% | 101% | 103% | 122% | 88.1% | 104% | 127% | 111% | 93.9% | 95.7%
C[C@@H](N)c1ccc(C(=O)Nc2ccnc3[nH]ccc23)cc1 + NCC(=O)Nc1ccc(-n2nc(C(F)(F)F)cc2-c2ccc3c(ccc4ccccc43)c2)cc1 [OSU03012] (partner dose 1 µM) | 97.5% | 104% | 66.7% | 109% | 79.6% | 103% | 83.7% | 106% | 79.8% | 76.3% | 47.4% | 86.7% | 60.5% | 63.9% | 70.8% | 49.9% | 85.3% | 72.8% | 89%
CCCCCCCCCCCCCCCCCCOP(=O)([O-])OC1CC[N+](C)(C)CC1 [Perifosine] + O=S(=O)(c1ccccc1)N(CC(F)(F)F)c1ccc(C(O)(C(F)(F)F)C(F)(F)F)cc1 [T0901317] (partner dose 1.4 µM) | 94.6% | 119% | 86.2% | 78% | 94.5% | 84.2% | 88.7% | 97.7% | 75.5% | 98.9% | 93.5% | 77.5% | 70% | 89.1% | 95.7% | 73.2% | 88.5% | 81.3% | 81.2%
CCCCCCCCCCCCCCCCCCOP(=O)([O-])OC1CC[N+](C)(C)CC1 [Perifosine] + C=CCn1c(=O)c2cnc(Nc3ccc(N4CCN(C)CC4)cc3)nc2n1-c1cccc(C(C)(C)O)n1 [MK1775] (partner dose 0.02 µM) | 92.1% | 66.6% | 88.6% | 95.2% | 93.8% | 97.4% | 81.2% | 101% | 85.2% | 100% | 94.2% | 40.7% | 70.8% | 95% | 90.3% | 75.2% | 76.4% | 80.9% | 78%
C[C@@H](N)c1ccc(C(=O)Nc2ccnc3[nH]ccc23)cc1 + COc1cc2ncnc(Nc3ccc(Oc4ccccc4)cc3)c2cc1OC [SrcI1] (partner dose 2 µM) | 85.6% | 138% | 101% | 112% | 102% | 101% | 153% | 132% | 65.6% | 67.9% | 83.6% | 80.7% | 58.4% | 71.7% | 102% | 104% | 89% | 73.6% | 93%
Cn1sc(=O)n(Cc2ccccc2)c1=O + O=C1NC(=O)/C(=C/c2ccc(-c3ccc(F)cc3O)o2)S1 [AS252424] (partner dose 1 µM) | 94.3% | 93.4% | 102% | 116% | 103% | 101% | 108% | 66.8% | 102% | 98% | 89% | 95.1% | 100% | 90% | 91.3% | 100% | 105% | 92.1% | 85.1%
C[C@@H](N)c1ccc(C(=O)Nc2ccnc3[nH]ccc23)cc1 + NC(=O)Nc1cc(-c2cccc(F)c2)sc1C(=O)N[C@H]1CCCNC1 [AZD7762] (partner dose 0.02 µM) | 79.6% | 104% | 82.9% | 114% | 113% | 105% | 150% | 101% | 87.9% | 87.7% | 85.1% | 77.5% | 73.1% | 63% | 111% | 155% | 81.3% | 67.2% | 78.3%
C[C@@H](N)c1ccc(C(=O)Nc2ccnc3[nH]ccc23)cc1 + O=c1cc(-c2cccc3c2Sc2ccccc2S3)oc(N2CCOCC2)c1 [KU55933] (partner dose 1 µM) | 92.7% | 132% | 131% | 108% | 94.1% | 90.9% | 148% | 64% | 101% | 73.4% | 80.1% | 76.3% | 103% | 96.7% | 123% | 121% | 90.1% | 85.2% | 97.3%
CCCCCCCCCCCCCCCCCCOP(=O)([O-])OC1CC[N+](C)(C)CC1 [Perifosine] + O=C1NC(=O)/C(=C/c2ccc(-c3ccc(F)cc3O)o2)S1 [AS252424] (partner dose 1 µM) | 97.6% | 107% | 113% | 104% | 94.6% | 100% | 99.4% | 71.2% | 94% | 101% | 104% | 81.5% | 145% | 91.8% | 96.4% | 83.7% | 111% | 99.8% | 88%
CCCCCCCCCCCCCCCCCCOP(=O)([O-])OC1CC[N+](C)(C)CC1 [Perifosine] + Oc1nc(-c2ccc(C(F)(F)F)cc2)nc2c1CSCC2 [XAV939] (partner dose 2 µM) | 78.1% | 145% | 119% | 91.9% | 105% | 96.7% | 102% | 94.6% | 94.5% | 102% | 115% | 63.1% | 89.2% | 83.9% | 97.6% | 112% | 82.3% | 99.8% | 88.6%
C[C@@H](N)c1ccc(C(=O)Nc2ccnc3[nH]ccc23)cc1 + N#Cc1c(O)c2c(-c3ccc(-c4ccccc4O)cc3)csc2[nH]c1=O [A769662] (partner dose 2 µM) | 72.8% | 116% | 89.2% | 130% | 97% | 94.2% | 110% | 84.1% | 71.6% | 69.5% | 79% | 76.1% | 85.2% | 60.3% | 100% | 129% | 71.2% | 59.4% | 77.2%
Cn1sc(=O)n(Cc2ccccc2)c1=O + COc1cc(N2CCC(N3CCN(C)CC3)CC2)ccc1Nc1ncc(Cl)c(Nc2ccccc2S(=O)(=O)C(C)C)n1 [NVP-TAE684] (partner dose 0.08 µM) | 87.9% | 99.4% | 131% | 91.9% | 103% | 105% | 121% | 107% | 103% | 113% | 98.2% | 90.4% | 102% | 97.2% | 101% | 94.8% | 92.1% | 92.3% | 93.5%
CCCCCCCCCCCCCCCCCCOP(=O)([O-])OC1CC[N+](C)(C)CC1 [Perifosine] + O=C(CCCCCCC(=O)Nc1ccccc1)NO [vorinostat] (partner dose 0.08 µM) | 94.6% | 87.4% | 110% | 79.2% | 99.6% | 99.9% | 89.9% | 128% | 107% | 108% | 94.7% | 39.6% | 98.3% | 78.1% | 93.2% | 84.4% | 91.1% | 91.6% | 70%
Cn1sc(=O)n(Cc2ccccc2)c1=O + C[C@@H]1CCN(C(=O)CC#N)C[C@@H]1N(C)c1ncnc2[nH]ccc12 [CP690550] (partner dose 1 µM) | 89.3% | 121% | 113% | 107% | 102% | 99.3% | 95.1% | 78% | 112% | 112% | 91.7% | 98.7% | 118% | 86% | 101% | 102% | 120% | 118% | 93.6%
